Screen size: about 48,000 compounds; about 1,200 (2.5%) were called active. Inconclusive results (about 2%) are left out.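 The calls were made as follows: active = activation of at least 60% and not above a set upper limit (about 1 call in 100 departs from these limits); inconclusive = activation of 40% to 60%, or above that upper limit; inactive = activation under 40%.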 This is one part of the list.
Molecular target: Probable G-protein coupled receptor 32 (Homo sapiens) (UniProt O75388)
Test: qHTS for Agonists of Human Resolvin D1 Receptor DRV1
Details: CHO-K1 GPR32 beta-arrestin PathHunter luminescence, 90 min; at 76.9 µM; hits give high values; zero percent set by DMSO-only wells
In short: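 Beta-arrestin recruitment read-out: luminescence from complemented beta-Gal in CHO-K1 GPR32 PathHunter cells, measured 1 h after detection reagent at ambient temperature following 90 min compound exposure at 37 °C; DMSO served as basal (EC0) control.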

UniProt O75388, sequence (O75388 whole entry, looked up): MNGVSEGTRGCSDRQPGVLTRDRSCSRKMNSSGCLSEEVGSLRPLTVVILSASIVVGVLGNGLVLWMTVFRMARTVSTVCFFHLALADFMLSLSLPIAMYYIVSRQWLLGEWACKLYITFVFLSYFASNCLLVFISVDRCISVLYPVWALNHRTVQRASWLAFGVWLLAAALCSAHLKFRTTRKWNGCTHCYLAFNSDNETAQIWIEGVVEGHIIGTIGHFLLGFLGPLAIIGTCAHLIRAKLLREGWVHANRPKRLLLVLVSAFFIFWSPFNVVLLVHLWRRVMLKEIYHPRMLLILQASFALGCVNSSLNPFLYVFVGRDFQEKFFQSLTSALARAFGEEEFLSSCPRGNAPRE

Row | SMILES | activation
1 | COc1ccc(CNC(=O)Cn2c(=O)c3cccn3c3ccccc32)cc1 | inactive: -18.1%
2 | CSc1nc(-c2ccccc2Cl)nc2c1Cc1c(CO)cnc(C)c1O2 | inactive: 14.5%
3 | CCc1nnc2c(N3CCN(c4cccc(C(F)(F)F)c4)CC3)nc3ccccc3n12 | inactive: -8.91%
4 | COc1ccc(N(CC(=O)N2CCc3ccccc3C2)S(=O)(=O)c2ccc(C)cc2)cc1Cl | inactive: -1.68%
5 | O=C(Cn1c(=O)n(Cc2ccco2)c(=O)c2oc3ccccc3c21)Nc1ccc(F)c(Cl)c1 | inactive: -9.18%
6 | COc1cccc(CNc2ncnc3onc(C)c23)c1 | inactive: 32.8%
7 | O=C(Nc1c(C(=O)N2CCN(c3ccccc3F)CC2)oc2ccccc12)c1ccco1 | inactive: -11.7%
8 | CNc1ccc(-c2nc(-c3ccccc3C)no2)cc1[N+](=O)[O-] | inactive: -14.2%
9 | COc1ccc(C2=C(C(C)=O)Sc3nnc(-c4ccc(Cl)cc4)n3N2C(C)=O)cc1OC | inactive: -33.1%
10 | CN1CCN(CCCNC(=O)c2cnn(-c3ccc(F)cc3)c2-n2cccc2)CC1 | inactive: -5.21%
11 | Cc1ccc(OCCCCn2cnc3ccccc32)cc1 | inactive: 27.9%
12 | O=C(Nc1nc2n(n1)C(c1ccccc1)C=C(c1ccccc1)N2)c1ccccc1 (stereo not drawn) | inactive: 13.8%
13 | COc1ccc(CNC(=O)CSc2n[nH]c(-c3ccc(F)cc3)n2)cc1 | inactive: -0.93%
14 | CS(=O)(=O)c1ccccc1-c1nnc(NC(=O)c2ccc3c(c2)OCCO3)o1 | inactive: -56.1%
15 | COc1cc(Cl)c(C)cc1NC(=O)CCc1c(C)nc2c3cccnc3nn2c1C | inactive: 3.1%
16 | O=C(Nc1ccc(C(=O)N2CCCCC2)cc1)c1nsc2ccccc12 | inactive: 11%
17 | Fc1ccc(Nc2nc(SCc3cccc(Cl)c3)nc3ccccc23)cc1 | inactive: -6.71%
18 | COc1ccc(CNC(=O)CN(c2ccc(C)cc2)S(=O)(=O)c2c(C)noc2C)cc1 | inactive: 27.2%
19 | COc1ccc(CNC(=O)C(CCSC)NS(=O)(=O)c2ccc3c(c2)oc(=O)n3C)cc1 (stereo not drawn) | inactive: -2.17%
20 | Cc1ccc(C)c(CN2C(=O)c3ccccc3S(=O)(=O)c3ccc(C(=O)Nc4cc(F)ccc4F)cc32)c1 | inactive: -1.18%
21 | COc1ccc(NC(=O)c2nnn(CC(=O)Nc3c(C)cc(C)cc3C)c2N)cc1OC | inactive: -7.48%

Row | SMILES | activation
22 | CNC(=O)C(=O)NCC(c1ccc2c(c1)OCO2)N1CCOCC1 (stereo not drawn) | inactive: -15.1%
23 | Cc1cc(C)cc(NC(=O)CSc2nc3c([nH]c4ccccc43)c(=O)n2-c2ccc(F)cc2)c1 | inactive: -2.07%
24 | CCOc1ccc(-c2cc(NC(=O)c3cccc(Cl)c3)c(C(=O)OC)s2)cc1 | inactive: 2.64%
25 | CCCOc1ccc(C(=O)Nc2nonc2-c2ccc(OCC)cc2)cc1 | inactive: -12.7%
26 | CC1=C(C(=O)Nc2ccccc2)C(c2ccc(C)cc2)n2nc(SCc3ccccc3C)nc2N1 (stereo not drawn) | inactive: 6.82%
27 | O=C(c1ccc(F)cc1F)N1CCC(c2nc(-c3ccc(S(=O)(=O)N4CCCC4)cc3)no2)CC1 | inactive: -4.62%
28 | Cc1cccc(C)c1OCC(N)C(C)C (stereo not drawn) | inactive: -12.4%
29 | COc1ccc(CNC(=O)C2=C(C)C(=O)OC23CCCCC3)cc1OC | inactive: -4.95%
30 | Cc1ccc(NC(=O)CSc2nnc(-c3nnn(-c4ccc(F)cc4)c3C)o2)cc1Br | inactive: 8.88%
31 | CCc1ccc(C(=O)COC(=O)C(Cc2c[nH]c3ccccc23)NC(=O)c2ccc(CC)cc2)cc1 (stereo not drawn) | inactive: -18.2%
32 | COc1ccc(CNC(=O)c2cc3cc4ccc(C)cc4nc3o2)cc1 | inactive: 38.1%
33 | O=C(Cc1ccccc1)Nc1c(C(=O)c2ccccc2)oc2ccccc12 | inactive: -25.7%
34 | Cc1nc(-c2cccc(F)c2)sc1CCNC(=O)c1c(F)cccc1Cl | inactive: 30.9%
35 | COc1cccc(N2CCN(C(=O)c3cc4c(s3)-c3c(C)cccc3OC4)CC2)c1 | inactive: -16.5%
36 | CCCCn1c(=NC(=O)C(C)(C)Oc2ccc(Cl)cc2)c(C(=O)OCC)cc2c(=O)n3ccccc3nc21 | inactive: -3.8%
37 | Cc1ccc(NC(=O)CN2C(=O)COc3ccc(S(=O)(=O)N4CCCCCC4)cc32)cc1Cl | inactive: -18.3%
38 | Cc1ccc(OCC(=O)Nc2nonc2-c2ccc(C)c(C)c2)cc1C | inactive: 19.5%
39 | CC(C)Cc1nn2c(=O)cc(COC(=O)CNC(=O)c3ccc(C(C)(C)C)cc3)nc2s1 | inactive: 0.997%
40 | Cc1ccc(C)c(CNC(=O)c2ccc3c(c2)nc2n3CCOC2)c1 | inactive: -7.54%
41 | CC1CCCN(CCCNC(=O)c2ccc3c(c2)N(Cc2cccc(Cl)c2)C(=O)c2ccccc2S3(=O)=O)C1 (stereo not drawn) | inactive: -26.9%
42 | O=C(Nc1ccc(OC(F)(F)F)cc1)C(Cc1ccccc1)NS(=O)(=O)c1cccc2nsnc12 (stereo not drawn) | inactive: -17.8%

Row | SMILES | activation
43 | COc1ccccc1C(=O)Nc1cccc(C(=O)OCc2cc(=O)n3nc(C4CC4)sc3n2)c1 | inactive: 7.51%
44 | COC(=O)c1ccc(C2c3c(oc4ccc(C)cc4c3=O)C(=O)N2Cc2ccc3c(c2)OCO3)cc1 (stereo not drawn) | inactive: 2.89%
45 | CCOC(=O)c1c(Nc2ccc(O)cc2)nnc(-c2ccccc2)c1-c1ccccc1 | active: 65.9%
46 | Cc1ccc(S(=O)(=O)c2nnn3c2nc(NCc2ccc4c(c2)OCO4)c2sccc23)cc1 | inactive: -20.9%
47 | COc1cccc(CNC(=O)Cn2ccc3cc(S(=O)(=O)N4CCCC4)ccc32)c1OC | inactive: 23.9%
48 | OCC(O)CS (stereo not drawn) | inactive: -2.7%
49 | Cc1ccc(S(=O)(=O)c2cnc(SCC(=O)Nc3ccc4c(c3)OCCO4)[nH]c2=O)cc1Cl | inactive: 10.9%
50 | CCOc1cc(C2C(C(=O)OC)=C(C)NC3=C2C(=O)c2ccccc23)ccc1OC (stereo not drawn) | inactive: -51.1%
51 | O=C(NCCc1ccccc1)c1ccc2nc(N3CCCCC3)sc2c1 | inactive: -6.97%
52 | CCCn1c2ccccc2c2cnn(CC(=O)NCCCN3CCCCC3)c(=O)c21 | inactive: -16.8%
53 | CCOc1ccc(NC(=O)c2sc3nc4c(c(-c5ccccc5)c3c2N)C(=O)CC(C)(C)C4)cc1 | inactive: -0.261%
54 | COc1ccc(OC)c(CN2CCN(S(=O)(=O)c3ccccc3)CC2)c1 | inactive: -3.7%
55 | Cc1ccccc1-c1ccnc2[nH]n(-c3ccccc3)c(=O)c12 | inactive: -19.6%
56 | O=S(=O)(NCC(c1ccco1)N1CCOCC1)c1ccc(Br)cc1 (stereo not drawn) | inactive: 29.8%
57 | Cc1ccccc1NC(=O)c1cn(-c2ccccc2)nc1-c1ccccc1 | inactive: -18.7%
58 | Cc1ccc2oc(C(=O)N(Cc3ccc(N(C)C)cc3)CC3CCCO3)c(C)c2c1 (stereo not drawn) | inactive: -31.4%
59 | CCOC(=O)c1c(NC(=O)CSc2cn(CCNC(=O)c3cccc(C(F)(F)F)c3)c3ccccc23)sc2c1CCC2 | inactive: -2.1%
60 | CN1CCC(=C2c3ccccc3CCc3sccc32)CC1 | inactive: 15.8%
61 | CC(NC(=O)C1CCN(S(=O)(=O)c2ccc(F)cc2)CC1)c1ccccc1 (stereo not drawn) | inactive: 6.62%
62 | CC1CCC(N2CC(=O)N(C3CCCCC3)C(c3ccc(Cl)cc3)C2=O)CC1 (stereo not drawn) | inactive: -17.3%
63 | O=C(Nc1ccc(Br)cc1)c1cc(-c2cccs2)nc2ccccc12 | inactive: -0.0319%

Row | SMILES | activation
64 | COc1cccc(C(=O)Nc2nc3ccc(S(=O)(=O)N4CCCC4)cc3s2)c1 | inactive: -9.1%
65 | CC(=O)Nc1ccc(NC(=O)CSc2nccn2Cc2ccc3c(c2)OCO3)cc1 | inactive: 0.139%
66 | COc1cc(NC(=O)CSc2ncc3c(n2)-c2ccc(Cl)cc2N(Cc2ccccc2)S3(=O)=O)cc(OC)c1 | inactive: 0.499%
67 | CC(C)c1ccc(NC(=O)CSC2=Nc3ccccc3C3=NC(CC(=O)NCc4cccs4)C(=O)N23)cc1 (stereo not drawn) | inactive: -12.5%
68 | COc1ccc(-c2cc(C(=O)Oc3ccc(C)cc3)c3ccccc3n2)cc1 | inactive: 12.6%
69 | CC(C)Oc1ccc(C(=O)N2CCC(c3nc4ccccc4o3)CC2)cc1 | inactive: -23.9%
70 | Cc1ccc(NS(=O)(=O)c2ccc(-c3cnc(C4CC4)o3)cc2)cc1N(C)C | inactive: -46.8%
71 | CCOc1ccccc1CNC(=O)CCc1c(C)nn(-c2ccc(N3CCCCC3)nn2)c1C | inactive: -0.818%
72 | CN(C)CCNC(=O)C1CCN(c2ncnc3c2nc2n3CCCCC2)CC1 | inactive: -6.45%
73 | O=C1CSC2(C(=O)N(Cc3ccccc3F)c3ccccc32)N1c1cccc(C(F)(F)F)c1 (stereo not drawn) | inactive: -18.4%
74 | O=C(Cn1ncc2c3ccccc3n(Cc3ccc(Cl)cc3)c2c1=O)NCCC1=CCCCC1 | inactive: -4.34%
75 | CC(=O)c1sc(NC(=O)c2c(-c3ccccc3)c(-c3ccccc3)nn(C)c2=O)nc1C | inactive: -4.37%
76 | CCN1CCN(C(=O)c2cnn(-c3ccc(F)cc3F)c2C2CCN(C(=O)OC(C)(C)C)CC2)CC1 | inactive: -8.1%
77 | CCN(CC)C(=O)Cn1c(=O)n(-c2ccc(C)c(C)c2)c(=O)c2c(C)c(C(=O)N(CC)CC)sc21 | inactive: -2.23%
78 | CCOc1ccc(NC(=O)c2c(NCc3cccnc3)sc3c2CCC(C)C3)cc1 (stereo not drawn) | inactive: -7.07%
79 | CCCCCN1C(C(=O)c2ccccc2)=C(NC(=O)c2ccc(C)cc2)c2ccccc2S1(=O)=O | inactive: -2.4%
80 | CC1CCc2onc(C(=O)N3CCN(c4ccc(F)cc4)CC3)c2C1 (stereo not drawn) | inactive: -16.2%
81 | CC(=O)c1ccc(O)c(C(N)=O)c1 | inactive: -17.6%
82 | CC1CCC(N2CC(=O)N(CCC3=CCCCC3)C(c3ccc(F)cc3)C2=O)CC1 (stereo not drawn) | inactive: -13.3%
83 | COc1ccc(OC)c(NC(=O)c2cnc(Nc3ccc(C)c(Cl)c3)c3ccccc23)c1 | inactive: -0.21%
